Results published in publication PMC4336329 (PLoS ONE, 2015).
Hit rate of the full screen: of about 310,000 compounds, about 14,000 (4.5%) showed an effect of 50% or more. Effects have a minus sign here. This is one part of the list.

target: human ether-à-go-go-related gene (hERG) potassium channel (human, UniProt Q12809); assay: primary screen, population patch clamp on CHO cells stably expressing hERG
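Also: peak tail current of the secondary pulse compared with the same well before compound.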

Chain of human ether-à-go-go-related gene (hERG) potassium channel (Q12809 whole entry, looked up): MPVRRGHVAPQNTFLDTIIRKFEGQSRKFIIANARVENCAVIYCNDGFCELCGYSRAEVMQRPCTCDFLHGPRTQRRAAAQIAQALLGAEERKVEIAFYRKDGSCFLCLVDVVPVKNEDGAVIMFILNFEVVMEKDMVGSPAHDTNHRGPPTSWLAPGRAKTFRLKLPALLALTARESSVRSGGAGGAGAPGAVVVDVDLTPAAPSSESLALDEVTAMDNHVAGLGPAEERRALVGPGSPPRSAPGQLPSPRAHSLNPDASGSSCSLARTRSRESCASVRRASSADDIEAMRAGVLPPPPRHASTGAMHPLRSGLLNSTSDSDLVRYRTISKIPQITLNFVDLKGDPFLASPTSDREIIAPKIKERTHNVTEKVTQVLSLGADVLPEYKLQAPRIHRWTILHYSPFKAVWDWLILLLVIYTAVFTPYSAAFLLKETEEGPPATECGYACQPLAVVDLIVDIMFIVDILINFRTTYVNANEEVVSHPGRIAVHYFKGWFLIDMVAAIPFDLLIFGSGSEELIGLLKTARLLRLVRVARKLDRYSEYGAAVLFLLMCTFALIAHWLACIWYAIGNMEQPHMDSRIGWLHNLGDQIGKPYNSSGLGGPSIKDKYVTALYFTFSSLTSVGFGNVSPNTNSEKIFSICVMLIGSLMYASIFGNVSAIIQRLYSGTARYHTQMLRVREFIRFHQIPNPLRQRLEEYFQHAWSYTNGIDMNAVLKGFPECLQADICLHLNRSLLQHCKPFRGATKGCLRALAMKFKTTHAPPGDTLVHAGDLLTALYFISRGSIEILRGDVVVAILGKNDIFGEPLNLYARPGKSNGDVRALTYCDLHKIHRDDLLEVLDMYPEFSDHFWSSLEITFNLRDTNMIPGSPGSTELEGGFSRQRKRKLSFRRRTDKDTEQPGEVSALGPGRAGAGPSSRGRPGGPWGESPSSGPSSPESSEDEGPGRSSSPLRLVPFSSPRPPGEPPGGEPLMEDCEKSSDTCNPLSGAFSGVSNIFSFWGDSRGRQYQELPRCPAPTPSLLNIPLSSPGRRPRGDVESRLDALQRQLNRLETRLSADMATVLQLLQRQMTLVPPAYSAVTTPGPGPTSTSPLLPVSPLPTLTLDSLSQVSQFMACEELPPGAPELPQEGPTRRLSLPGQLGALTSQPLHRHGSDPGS

Structure (SMILES) | hERG current change (%, negative = inhibition) at 10uM [%]
CCN1CCN(CC(O)COC(C)C)CC1.Cl (stereo not drawn) | 2.08
Clc1nc(-c2ccccc2)ncc1Oc1ccccc1 | 14.6
COc1ccc(/C=N/NC(=O)C2c3ccccc3-c3ccccc32)cc1 | -2.98
Cc1ccc(Nc2ncnc3ccccc23)cc1.Cl | 1.6
O=C(O)COc1ccccc1/C=N/NC(=O)CSc1nnc(SCc2cccc3ccccc23)s1 | 15.8
Cc1cccc(Nc2nc3c(S(=O)(=O)c4ccccc4)nnn3c3ccccc23)c1 | 17.6
Cc1ccccc1C(=O)N1CCN(c2ccc(N3CCOCC3)nn2)CC1 | 11.6
O=C(c1cccc(C(F)(F)F)c1)C1CCCN(C(=O)/C=C/c2cnc[nH]2)C1 (stereo not drawn) | -18.9
CC(C)[C@H](NC(=O)c1ccccc1)C(=O)OCC(=O)N1CCCc2ccccc21 | 2.57
COC(=O)[C@@H](NC(=O)NC(C)CCc1ccccc1)C(C)C (stereo partly drawn) | 9.82
COc1ccc(C(=O)Nc2ccncc2)cc1[N+](=O)[O-] | 10.8
O=C(Cn1cnc2ccccc2c1=O)N(Cc1ccco1)c1ccc(O)cc1 | -3.58
CCC(=O)c1ccc(OC(=O)c2cccs2)cc1 | 2.63
CCc1ccc(/C(C)=N/NC(=O)C(O)c2ccccc2)s1 (stereo not drawn) | 16.5
CCCn1c(=O)c2ccccc2n2c(SCc3cc(=O)oc4ccc5ccccc5c34)nnc12 | -2.87
Clc1ccc(CNc2nc(CN3CCOCC3)nc3scc(-c4ccccc4)c23)cc1 | -9.73
N#Cc1c(Cl)cccc1N1CCC(C(N)=O)CC1 | -1.76
O=C(Cc1c[nH]c2ccccc12)Nc1nccs1 | 0.956
CC1=NNC(=O)C1CCC(=O)N/N=C/c1c(Cl)cccc1Cl (stereo not drawn) | 11.8
COc1cc2[nH]c(=O)n(-c3cccc(Cl)c3)c(=O)c2cc1OC | 19
Cn1cccc1CC(=O)NNC(=S)Nc1ccc(Cl)cc1 | 8.69
COC(=O)CC1SC(=O)NC1=Nc1ccc(C)cc1 (stereo not drawn) | 0.751
CCOC(=O)c1c(C)oc2ccc(NS(=O)(=O)c3ccc(C(=O)O)cc3)cc12 | 19.9

Structure (SMILES) | hERG current change (%, negative = inhibition) at 10uM [%]
O=C(CN(C(=O)c1csnn1)c1ccccc1Cl)NC1CCCC1 | 3.04
COc1ccc(C(=O)CN2C3=NCCCN3c3ccccc32)cc1OC | -36.5
O=C(O)c1cc(NC(=O)c2ccc3c(c2)C(=O)N(Cc2cccnc2)C3=O)cc(C(=O)O)c1 | 2.23
CCCCCCCCNc1ncnc2ccccc12 | -37.1
COc1ccc(N2CCN(C(CNC(=O)C(=O)NC3CC3)c3ccco3)CC2)cc1 (stereo not drawn) | 13.6
Cc1ccc(S(=O)(=O)CCC(=O)OCC(=O)N2CC(=O)Nc3ccccc32)cc1 | -22.1
Cc1ccc(C(=O)NCCNC(=O)c2ccc(C)nc2)cc1 | 5.21
O=C(COc1ccccc1)Nc1cccc(-c2nc3ccccc3[nH]2)c1 | -67
CCOc1ccc(NC(=O)COc2nsnc2N2CCCCC2)cc1 | 21.6
OC(COc1ccccc1)CN1CCCCCC1 (stereo not drawn) | -4.43
COC(=O)c1ccc2nc(NC(=O)COC(=O)CSc3nc(C)cc(C)n3)sc2c1 | 17.4
CN1CCN(c2ccc(-c3ccnn3C(=O)Nc3cccc(C(F)(F)F)c3)cc2)CC1 | 0.251
Cc1cc(=O)nc2c3ccccc3n(CC(=O)NCCC3=CCCCC3)n12 | -11.5
Cn1nc(C(=O)NCCc2ccc(Cl)cc2)c2c1-c1ccccc1S(=O)(=O)C2 | -4.99
COc1ccc(NS(=O)(=O)c2cccc(C(=O)OCC(=O)Nc3cc(C)on3)c2)cc1 | -11
CC(C)Oc1ccc(C2NC(=O)c3ccccc3O2)cc1 (stereo not drawn) | 21.4
CCC(CO)N=C1CC(C)(C)CC(=O)/C1=C(/O)CCCN1C(=O)c2ccccc2C1=O (stereo not drawn) | 17.2
COc1ccc(S(=O)(=O)N2CCC(C(=O)Oc3c(OC)cccc3OC)CC2)cc1OC | -8.18
CCOc1ccc(N(C(C)C(=O)NCc2ccco2)S(C)(=O)=O)cc1 (stereo not drawn) | -2.31
O=C(O)c1cccn2c(=O)c3ccccc3nc12 | 13.1
COc1ccccc1C(=O)NNC(=S)NC(=O)c1cc(OC)c(OC)c(OC)c1 | 0.00238
O=[N+]([O-])c1cccc(-c2noc(-c3cccs3)n2)c1 | 9.13
CCn1c(SCC(=O)Nc2cc(F)ccc2C)nnc1-c1ccccc1O | -11.6

Structure (SMILES) | hERG current change (%, negative = inhibition) at 10uM [%]
COc1ccc(NC(=O)C(=O)NCCN2CCN(C(=O)c3ccco3)CC2)cc1 | -11.1
Cc1ccccc1NS(=O)(=O)c1cc(S(C)(=O)=O)ccc1C | 14.7
Nn1c(SCC(=O)N2CCCCCC2)nnc1-c1ccco1 | -3.8
Cc1cccc(C(=O)OC2CCCN(C)C2)c1C.Cl (stereo not drawn) | 2.36
COc1ccc(NC(=O)NC2(C(=O)N3CCOCC3)CCCCC2)cc1 | 15
COC(=O)c1c(-c2ccccc2)csc1NC(=O)CSc1ncnc2sc(C)c(C)c12 | 2.42
O=P(O)(COc1ccccc1)COc1ccccc1 | 3.08
Cc1cc(C(=O)NNc2ccc(F)cc2)no1 | 16.4
Cc1ccc(CNC(=O)CN(c2cccc([N+](=O)[O-])c2)S(=O)(=O)c2ccccc2)cc1 | -25
CCCCn1c(NCCO)nc2ccccc21 | -2.27
CCC(C)n1c(O)c(C=NCc2cccnc2)c(=O)[nH]c1=S (stereo not drawn) | -16.4
C=CCOc1ccc(/C=C/C(=O)OCC(=O)NCc2ccco2)cc1 | 9
COCCC(=O)N1CCC(n2nccc2NC(=O)CCc2ccccc2)CC1 | 14.2
COCCCNc1oc(-c2ccccc2F)nc1C#N | -5.33
COC(=O)c1ccc(/C=C/C(=O)O)cc1 | 11.9
COc1cccc(OC)c1C(=O)N1CCN(c2ccccn2)CC1 | 11
C/C(=N/NC(=O)c1cc(-c2ccc(Br)s2)[nH]n1)c1ccco1 | -4.84
Cc1cccc(N2CCN(C(=O)C3CCN(S(=O)(=O)c4c(C)noc4C)CC3)CC2)c1C | -25.4
O=C(Nc1ccc(N2CCOCC2)nc1)c1ccc(C(F)(F)F)cc1 | 16.6
Cc1ccc(N2CC(C(=O)Nc3cc(C)on3)CC2=O)cc1 (stereo not drawn) | 2.01
CC12CCC(C(=O)N(CC3CO3)C1=O)C2(C)C (stereo not drawn) | 11.9
O=C(OCC(O)C(O)COC(=O)c1ccccc1)c1ccccc1 (stereo not drawn) | -2.63
CCOc1ccccc1NC(=O)Nc1cccc(S(N)(=O)=O)c1 | 1.76

Structure (SMILES) | hERG current change (%, negative = inhibition) at 10uM [%]
COc1ccc(CN2C(=O)N(c3ccccc3)C(=O)C2CC(=O)Nc2ccccc2)cc1OC (stereo not drawn) | 10.7
CN(C)c1ccc(C=C2C(=O)OC(C)(C(C)(C)C)OC2=O)cc1 (stereo not drawn) | 3.05
CCOC(=O)c1ccc(S(=O)(=O)NNC(=O)c2ccc3c(c2)nc(C)n3CC)cc1 | 22.5
O=C1C2C3CCC(O3)C2C(=O)N1c1cccc(O)c1 (stereo not drawn) | 13.7
O=C(CSc1nc2ccccc2[nH]1)Nc1ccc2c(c1)OCCO2 | 3.01
COc1ccc(NC(=O)CSc2nc(N)c3cc4c(nc3n2)CC(C)(C)OC4)cc1 | 0.776
COC(=O)[C@H](CC(C)C)NC(=O)NCc1ccc(Cl)cc1 | 0.763
O=C1N=C2SCCN2/C1=C\c1c(Cl)cccc1Cl | -5.29
Cc1ccc(S(=O)(=O)CCC(=O)Nc2nc(-c3ccncc3)cs2)cc1 | -24
COCCOc1ccc(C(F)(F)F)cc1NC(=O)COC(=O)C1=COCCO1 | -47.3
CN(C)CCn1c(=O)n(Cc2ccco2)c(=O)c2c3c(sc21)CCCCC3 | -50.4
NC(=O)c1ccc(N=Nc2c(-c3ccccc3)[nH]n(-c3ccccc3)c2=O)cc1 | 0.511
Cc1ccccc1C(=O)NNC(=O)C1CCN(c2ncccn2)CC1 | 13.6
O=C(CN1C(=O)NC(CCc2ccccc2)C1=O)NC1CC1 (stereo not drawn) | 18.8
O=C1N/C(=N\N=C\c2cccs2)SC1Cc1ccc(Cl)c(Cl)c1 (stereo not drawn) | 16.1
Cc1ccc(C(=O)N/N=C\c2cccs2)cn1 | -6.13
O=C(COC(=O)c1ccc2c(c1)OCO2)Nc1ccccc1F | 11.8
O=C(COC(=O)CCC1CCCC1)Nc1nc2c(F)c(F)c(F)cc2s1 | 13.5
C[C@@H](NC(=O)Cn1ccc(NC(=O)OCc2ccccc2)nc1=O)c1cccc2ccccc12 | 4.77
O=[N+]([O-])c1cccc(NC(=S)N2CCN(S(=O)(=O)c3ccccc3)CC2)c1 | -16.3
Cn1c(=O)c2c(ncn2CC(=O)N/N=C/C(Cl)=C/c2ccccc2)n(C)c1=O | -25.5
